Results as given in the supplement of paper PMC11417369.
Some of the results follow.

Test system: PfAP2-HC AP2 domain (GST-tagged)
Test: gcPBM binding intensity (ln(normalized median fluorescence intensity)); higher = stronger DNA binding
In short: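 Probes on an Agilent 4 × 180k array were primer-extended, double-stranded and 36 bp long, taken from intergenic genomic regions, with negative controls added. GST-tagged P. falciparum DNA-binding domains from E. coli, about 25 μg on average, were applied to the array for 1 h in 1× PBS containing 1% milk, 0.2 mg/ml BSA, 0.5% salmon testes DNA and 0.03% Triton X-100. Binding intensity, obtained after Alexa488 anti-GST antibody detection and a 488 nm scan, is the highest Masliner-normalised natural-log median intensity across replicate spots of either probe orientation.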

Sequence | gcPBM binding intensity (ln)
ATGTTCCATTTTACTTGTACTAATTTTTTCCTATCT [XGTACX_site6474] | 9.78
TATATTATTTTCTTTTGTACACATATATATCAGTGT [XGTACX_site664] | 9.9
ATGATAATTTTTTTCTCACACACAAATATTTTAATC [CACACA_site3665] | 9.92
TTTTTATTGCAATACTTATATTTTTTTATGATTAAA [TGCATGCA_negctrl_site147] | 9.77
ATAATAATAAAGTATGCATGCATATAATATAATATA [TGCATGCA_site796] | 10
AAATCACATAAAACATAATCAAATGAAATATAATCA [CACACA_negctrl_site123] | 9.67
TAAATATTATTATATACATGCACTTACAACTTTTTT [TGCATGCA_site877] | 9.83
ACTGTAAATTTATTCGGTACACATATAAATAATATT [XGTACX_site7346] | 9.64
TTAATGGCAAAATAGGCACACACACCGATACATATA [CACACA_site8263] | 10.3
ACAGTAGCCAGTAACTGTACGGATTGTAGAGATCAG [XGTACX_site4873] | 9.74
ATAATATTTAGGTGTGCACACAAACATACATATATA [CACACA_site9120] | 10.2
ATTATTTTTAAAAATTGTACAGTATAAGAGAGAAAT [XGTACX_site7094] | 9.64
TATTGTAAAAAGATTACACACGTTCTATATACTTTT [CACACA_site5379] | 9.82
AATAAAAAAATATATTGTACTAATAATTATATGTTT [XGTACX_site2246] | 9.58
ATGGTTAAAAAAAGCATACACACTATCCTCTTTGCT [CACACA_site2552] | 9.87
TTTGTTGACGGACACACACACATACAGATATATATA [CACACA_site5292] | 10.1
ATAATAAATTATTATGTACACACATAATAGTATATA [CACACA_site8538] | 9.95
TAGATACATAAAAGTGGTACATATATATATATATAT [XGTACX_site6263] | 9.85
AATATTTATATTTACACACACATAATACCTATATGT [CACACA_site6167] | 10.2
TGGAAATTCTCAGGAGTGCATATTTGCAGTTTACGT [GTGCAC_site9768] | 9.7
ATATTTTTTTTTTTTTGTACATATATCATTATATAT [XGTACX_site866] | 9.85
TTTTTGTCTGCATACGCACACACGTGTACCATCTTA [CACACA_site1173] | 10.8
TGGTTACTGTCATTAGTTATTTCTTGTTGACAATTA [CACACA_negctrl_site416] | 9.66

Sequence | gcPBM binding intensity (ln)
CCGTTGAACATATATGCACACACATAAAATAAAAAA [CACACA_site8761] | 10
TATTTTTCCATATGCACACACACCGTATCTAGAATA [CACACA_site6654] | 10.3
TACATAAACATTTATACACACATTATGTATACATAT [CACACA_site405] | 9.96
GGATTTTTCGAATCATGTACATATTTAATTAAAAAA [XGTACX_site7939] | 9.35
TAGAATGTATGTAGTGCACACCTCTATAATATATTA [CACACA_site1873] | 9.72
AACTTTGGCAAACACACACACACACCCACACCCACA [CACACA_site588] | 10.5
TTCTCACTTTTAAATTTTATTCAAAAATAAGGAAAG [XGTACX_negctrl_site444] | 9.23
GAGAGTAAAACAAATATACACACCATAAAGTTATAA [CACACA_site1686] | 9.85
ATATATATATATAAATGTACATATGTATAATTCATA [XGTACX_site6679] | 9.91
ATTTCGTTCTTTTATGCACACTCAACATATAAATTA [CACACA_site8322] | 9.93
TTATATATTTTGATTGCACACAGAATTTAAATCATG [CACACA_site8735] | 9.79
ATATATGTGCTAAAATGTACATAGTATAATATATTT [XGTACX_site1949] | 9.79
TTTAATCATTTTAGCTTACACACAAAATTTTGTTAT [CACACA_site2938] | 9.96
ATAAAATAAAGGAAAAATATTAAGTTTTAAGAAAAT [CACACA_negctrl_site1066] | 9.64
ATATTTAAGATTTAATCACACACATATATATTATAT [CACACA_site8946] | 9.9
TTTTTTTTTTGCACGTGTACATAAAAATATATATAT [XGTACX_site3116] | 9.54
AAAATATATTCAACTTGTACATATATATATATATAT [XGTACX_site7629] | 9.7
TTTTTGTAATGACACACACACAAACAGAAAAAATAA [CACACA_site7062] | 10.2
AAAATTTATGGAAGGTGTACTGTTAATTATGTATAT [XGTACX_site6446] | 9.74
ATATTAAAGATATATACACACATATTTATAAATATA [CACACA_site7127] | 9.78
GAAGACAATTATATGTGTACATATATATACATATAT [XGTACX_site4630] | 9.76
AGTAGATATTATTATAGTACTTTTTATTTTATATTT [XGTACX_site1551] | 9.7
GGAATTCATATTAATTGTACATTTAAAGATAGATGA [XGTACX_site3279] | 9.57

Sequence | gcPBM binding intensity (ln)
ATATTTTACATATTTGCACACATATATTTATATACA [CACACA_site855] | 10.1
ATATATATATATATATGTACTTATTTATTTATTTAT [XGTACX_site4645] | 9.81
TAATATGTGGACTTTACACACTTGTTTTAAAATTCT [CACACA_site4605] | 9.78
ATATAAAAATAATAGAGTACAAAAAAAAAATGTATA [XGTACX_site7054] | 9.79
GATGATACGATTATCACACATTTATACTTTCTACAT [CACACA_site5669] | 9.85
TGTATACATTATTAAGTGCAAGTAGGGAAAAAAAAA | 9.62
TTTATTTATCTTTACGCACACACTTGCATGTACAAA [CACACA_site1118] | 10.6
TACCTACCTTTACGGAGTACACAATAATAGTTATAA [XGTACX_site6593] | 9.69
ATATGATTAATTAAGTGTACGTATTTATAATTATAA [XGTACX_site5783] | 9.51
ATTACAATTTTAATAGTGCATTTTTATATATTTCTA [GTGCAC_site9918] | 9.63
CAAGAAAAGAAACACACACACATATATATATATATA [CACACA_site3881] | 11.2
TAAACATATACACGTACATGCAACGGATTTTTTTTT [TGCATGCA_site70] | 9.67
TTTTTACTATAAGGGGAAAAAAAAAAAAATAATATA [XGTACX_negctrl_site279] | 9.25
ATATAACTTTTAAAAGCATGCAAATATTTACTCAAT [TGCATGCA_site396] | 9.62
TATATATATATATGTGCACACATAATAAAAAAAAAA [CACACA_site3830] | 10.2
TAAAGAATAATACATTCACACAATATTATAAAAATA [CACACA_site5986] | 9.67
TTGTATGAATTTATTTTTATTGATAATTAATATGTA [TGCATGCA_negctrl_site143] | 9.54
TATGATTAATTACCACAATTGACAAAAAAAAAAAAA [CACACA_negctrl_site336] | 9.44
GAAATGTCATATAATAGTACACACATGAAAATATAA [XGTACX_site6838] | 9.89
TATAAGTATTAATACACACACAAAATAATAAAAAAA [CACACA_site3481] | 10.2
AAAAATAAAGGATATACACACTAATTCTATAAATAT [CACACA_site7344] | 9.89
GTCTCGATAATGAAAAGTACAAAATAAAAATAATAA [XGTACX_site6471] | 9.61
TTGTTCTATATATATGCATGCACGTATGTTAAATTA [TGCATGCA_site659] | 9.77

Sequence | gcPBM binding intensity (ln)
TCTCATATATTGAATTGTACATATGTTAAAATATAG [XGTACX_site6764] | 9.46
TATTAATTTTTATACGCATGTGTATAGTAATATATA [TGCATGCA_site1010] | 9.62
ATACAAAAGGGGAATACACACACATATATATATATA [CACACA_site8694] | 10.3
AATAAACATAGATGTACACACATATACAGATATATA [CACACA_site5570] | 10
AAGAAAAGAACAAGAGCATGCACTTAATAAGAATAA [TGCATGCA_site818] | 9.66
TTAATATATTTTAAAAGTACATAATATTATTTTTTA [XGTACX_site3642] | 9.14
AAGAGGTTAATGAAATGTACACATATATATATATAT [XGTACX_site1861] | 9.7
TATAGTTTTGAAAACAAACACACAAAAAAAAAAAAA [CACACA_site1691] | 9.73
TTTTTTTTCTATGTGGTGCACATTATTTTTTTTTTT | 9.84
ATAATTTCACAAATAGTGCAAAAATTAGTAAGAATA [GTGCAC_site9648] | 9.76
TTTTATAAATATTATACATGCATAATGATAAAAAAA [TGCATGCA_site927] | 9.55
TATGTAACCTGTTTTACACACCCCCACCCCCCTCTT [CACACA_site319] | 10.2
AAAAAAAACAGACACACACACATACAAAATATATAT [CACACA_site1449] | 10.7
TTTAAATACAGACATACACACATACACAGACATATA [CACACA_site4460] | 10.6
CTCTATTGTTAAAAGGTGCTTTTATGATTTTATATA [GTGCAC_site9409] | 9.68
ATATTTTTATGTACTTCAAAAAAAAAGAAAAACAAA [CACACA_negctrl_site970] | 9.48
TAATTTTTTTTTAATTGTACATGTGAATATATTTCA [XGTACX_site4115] | 9.35
GTTTACATTTTAAGAAGTACAAAATTTATGGTTAAA [XGTACX_site450] | 9.42
TATATATATATATGTAGTACTCAATATTGTAGATTA [XGTACX_site3856] | 9.64
AAATATATGTATATATGTACATATGTGTGCTATCAT [XGTACX_site1604] | 9.97
